# Measured values as given in the supplement of paper PMC8728848.
# The list shows a part of the results.
# B1: Siglec-9 (Homo sapiens), Q9Y336 (protein)
# chain: MLLLLLPLLWGRERAEGQTSKLLTMQSSVTVQEGLCVHVPCSFSYPSHGWIYPGPVVHGYWFREGANTDQDAPVATNNPARAVWEETRDRFHLLGDPHTKNCTLSIRDARRSDAGRYFFRMEKGSIKWNYKHHRLSVNVTALTHRPNILIPGTLESGCPQNLTCSVPWACEQGTPPMISWIGTSVSPLDPSTTRSSVLTLIPQPQDHGTSLTCQVTFPGASVTTNKTVHLNVSYPPQNLTMTVFQGDGTVSTVLGNGSSLSLPEGQSLRLVCAVDAVDSNPPARLSLSWRGLTLCPSQPSNPGVLELPWVHLRDAAEFTCRAQNPLGSQQVYLNVSLQSKATSGVTQGVVGGAGATALVFLSFCVIFVVVRSCRKKSARPAAGVGDTGIEDANAVRGSASQGPLTEPWAEDSPPDQPPPASARSSVGEGELQYASLSFQMVKPWDSRGQEATDTEYSEIKIHR
# Columns and labels:
# Assay in all cases: glycan array binding signal (z-score within array); higher = stronger binding
# Settings in all cases: glycan notation: IUPAC condensed, linker removed
# [1] = biological target: Fuc(a1-2)Gal6S(b1-3)GlcNAc
# Summary of the method: (§1)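 From the Consortium for Functional Glycomics database, 3228 arrays were curated, keeping only those whose protein sequence was available. Binding is given as a within-array Z-score averaged across arrays sharing a protein sequence and across linkers. Negative Z-scores can be read as non-binding.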
# [2] = biological target: Fuc(a1-2)Gal6S(b1-3)GlcNAc6S
# Summary of the method: as §1
# Fuc(a1-2)Gal6S(b1-4)Glc = biological target: Fuc(a1-2)Gal6S(b1-4)Glc
# Summary of the method: as §1
# [3] = biological target: Fuc(a1-2)Gal6S(b1-4)Glc6S
# Summary of the method: as §1
# Fuc(a1-2)[Gal(a1-3)]Gal = biological target: Fuc(a1-2)[Gal(a1-3)]Gal
# Summary of the method: as §1
# [4] = biological target: Fuc(a1-2)[Gal(a1-3)]Gal(b1-3)GalNAc
# Summary of the method: as §1
# [5] = biological target: Fuc(a1-2)[Gal(a1-3)]Gal(b1-3)GalNAc(b1-3)Gal(a1-4)Gal(b1-4)Glc
# Summary of the method: as §1
# [6] = biological target: Fuc(a1-2)[Gal(a1-3)]Gal(b1-3)GlcNAc
# Summary of the method: as §1
# [7] = biological target: Fuc(a1-2)[Gal(a1-3)]Gal(b1-3)GlcNAc(b1-2)Man(a1-3)[Fuc(a1-2)[Gal(a1-3)]Gal(b1-3)GlcNAc(b1-2)Man(a1-6)]Man(b1-4)GlcNAc(b1-4)GlcNAc
# Summary of the method: as §1
# [8] = biological target: Fuc(a1-2)[Gal(a1-3)]Gal(b1-3)GlcNAc(b1-2)Man(a1-3)[Fuc(a1-2)[Gal(a1-3)]Gal(b1-3)GlcNAc(b1-2)Man(a1-6)]Man(b1-4)GlcNAc(b1-4)[Fuc(a1-6)]GlcNAc
# Summary of the method: as §1
# [9] = biological target: Fuc(a1-2)[Gal(a1-3)]Gal(b1-3)GlcNAc(b1-3)GalNAc
# Summary of the method: as §1
# [10] = biological target: Fuc(a1-2)[Gal(a1-3)]Gal(b1-3)GlcNAc(b1-6)GalNAc
# Summary of the method: as §1
# [11] = biological target: Fuc(a1-2)[Gal(a1-3)]Gal(b1-4)Glc
# Summary of the method: as §1
# [12] = biological target: Fuc(a1-2)[Gal(a1-3)]Gal(b1-4)GlcNAc
# Summary of the method: as §1
# [13] = biological target: Fuc(a1-2)[Gal(a1-3)]Gal(b1-4)GlcNAc(b1-2)Man
# Summary of the method: as §1
# [14] = biological target: Fuc(a1-2)[Gal(a1-3)]Gal(b1-4)GlcNAc(b1-2)Man(a1-3)[Fuc(a1-2)[Gal(a1-3)]Gal(b1-4)GlcNAc(b1-2)Man(a1-6)]Man(b1-4)GlcNAc(b1-4)GlcNAc
# Summary of the method: as §1
# [15] = biological target: Fuc(a1-2)[Gal(a1-3)]Gal(b1-4)GlcNAc(b1-2)Man(a1-3)[Fuc(a1-2)[Gal(a1-3)]Gal(b1-4)GlcNAc(b1-2)Man(a1-6)]Man(b1-4)GlcNAc(b1-4)[Fuc(a1-6)]GlcNAc
# Summary of the method: as §1
# [16] = biological target: Fuc(a1-2)[Gal(a1-3)]Gal(b1-4)GlcNAc(b1-3)GalNAc
# Summary of the method: as §1
# [17] = biological target: Fuc(a1-2)[Gal(a1-3)]Gal(b1-4)GlcNAc(b1-3)[Fuc(a1-2)[Gal(a1-3)]Gal(b1-4)GlcNAc(b1-6)]GalNAc
# Summary of the method: as §1
# [18] = biological target: Fuc(a1-2)[Gal(a1-3)]Gal(b1-4)GlcNAc(b1-6)GalNAc
# Summary of the method: as §1
# [19] = biological target: Fuc(a1-2)[Gal(a1-3)]Gal(b1-4)[Fuc(a1-3)]Glc
# Summary of the method: as §1
# [20] = biological target: Fuc(a1-2)[Gal(a1-3)]Gal(b1-4)[Fuc(a1-3)]GlcNAc
# Summary of the method: as §1
# [21] = biological target: Fuc(a1-2)[Gal(a1-3)]Gal(b1-4)[Fuc(a1-3)]GlcNAc(b1-3)GalNAc
# Summary of the method: as §1
# [22] = biological target: Fuc(a1-2)[Gal(a1-4)]Gal(b1-4)GlcNAc
# Summary of the method: as §1
# [23] = biological target: Fuc(a1-2)[GalNAc(a1-3)]Gal
# Summary of the method: as §1
# [24] = biological target: Fuc(a1-2)[GalNAc(a1-3)]Gal(b1-3)GalNAc(a1-3)[Fuc(a1-2)]Gal(b1-4)GlcNAc
# Summary of the method: as §1
# [25] = biological target: Fuc(a1-2)[GalNAc(a1-3)]Gal(b1-3)GalNAc(b1-3)Gal(a1-4)Gal(b1-4)Glc
# Summary of the method: as §1
# [26] = biological target: Fuc(a1-2)[GalNAc(a1-3)]Gal(b1-3)GlcNAc
# Summary of the method: as §1
# [27] = biological target: Fuc(a1-2)[GalNAc(a1-3)]Gal(b1-3)GlcNAc(b1-2)Man(a1-3)[Fuc(a1-2)[GalNAc(a1-3)]Gal(b1-3)GlcNAc(b1-2)Man(a1-6)]Man(b1-4)GlcNAc(b1-4)GlcNAc
# Summary of the method: as §1
# [28] = biological target: Fuc(a1-2)[GalNAc(a1-3)]Gal(b1-3)GlcNAc(b1-2)Man(a1-3)[Fuc(a1-2)[GalNAc(a1-3)]Gal(b1-3)GlcNAc(b1-2)Man(a1-6)]Man(b1-4)GlcNAc(b1-4)[Fuc(a1-6)]GlcNAc
# Summary of the method: as §1
# [29] = biological target: Fuc(a1-2)[GalNAc(a1-3)]Gal(b1-3)GlcNAc(b1-3)GalNAc
# Summary of the method: as §1
# [30] = biological target: Fuc(a1-2)[GalNAc(a1-3)]Gal(b1-3)GlcNAc(b1-6)GalNAc
# Summary of the method: as §1
# [31] = biological target: Fuc(a1-2)[GalNAc(a1-3)]Gal(b1-4)Glc
# Summary of the method: as §1
# [32] = biological target: Fuc(a1-2)[GalNAc(a1-3)]Gal(b1-4)GlcNAc
# Summary of the method: as §1
# [33] = biological target: Fuc(a1-2)[GalNAc(a1-3)]Gal(b1-4)GlcNAc(b1-2)Man
# Summary of the method: as §1
# [34] = biological target: Fuc(a1-2)[GalNAc(a1-3)]Gal(b1-4)GlcNAc(b1-2)Man(a1-3)[Fuc(a1-2)[GalNAc(a1-3)]Gal(b1-4)GlcNAc(b1-2)Man(a1-6)]Man(b1-4)GlcNAc(b1-4)GlcNAc
# Summary of the method: as §1
# [35] = biological target: Fuc(a1-2)[GalNAc(a1-3)]Gal(b1-4)GlcNAc(b1-2)Man(a1-3)[Fuc(a1-2)[GalNAc(a1-3)]Gal(b1-4)GlcNAc(b1-2)Man(a1-6)]Man(b1-4)GlcNAc(b1-4)[Fuc(a1-6)]GlcNAc
# Summary of the method: as §1
# [36] = biological target: Fuc(a1-2)[GalNAc(a1-3)]Gal(b1-4)GlcNAc(b1-3)Gal(b1-4)GlcNAc
# Summary of the method: as §1
# [37] = biological target: Fuc(a1-2)[GalNAc(a1-3)]Gal(b1-4)GlcNAc(b1-3)Gal(b1-4)GlcNAc(b1-3)Gal(b1-4)GlcNAc
# Summary of the method: as §1
# [38] = biological target: Fuc(a1-2)[GalNAc(a1-3)]Gal(b1-4)GlcNAc(b1-3)GalNAc
# Summary of the method: as §1
# [39] = biological target: Fuc(a1-2)[GalNAc(a1-3)]Gal(b1-4)GlcNAc(b1-3)[Fuc(a1-2)[GalNAc(a1-3)]Gal(b1-4)GlcNAc(b1-6)]GalNAc
# Summary of the method: as §1
# [40] = biological target: Fuc(a1-2)[GalNAc(a1-3)]Gal(b1-4)GlcNAc(b1-6)GalNAc
# Summary of the method: as §1
# [41] = biological target: Fuc(a1-2)[GalNAc(a1-3)]Gal(b1-4)[Fuc(a1-3)]GlcNAc
# Summary of the method: as §1
# [42] = biological target: Fuc(a1-2)[GalNAc(a1-3)]Gal(b1-4)[Fuc(a1-3)]GlcNAc(b1-3)GalNAc
# Summary of the method: as §1
# [43] = biological target: Fuc(a1-2)[GalNAc(a1-4)]Gal(b1-4)GlcNAc
# Summary of the method: as §1
binder,measurement,setting,value
B1,glycan array binding signal (z-score),[1],-0.196
same,glycan array binding signal (z-score),[2],0.319
same,glycan array binding signal (z-score),Fuc(a1-2)Gal6S(b1-4)Glc,-0.323
same,glycan array binding signal (z-score),[3],0.059
same,glycan array binding signal (z-score),Fuc(a1-2)[Gal(a1-3)]Gal,-0.193
same,glycan array binding signal (z-score),[4],-0.015
same,glycan array binding signal (z-score),[5],-0.093
same,glycan array binding signal (z-score),[6],-0.296
same,glycan array binding signal (z-score),[7],-0.23
same,glycan array binding signal (z-score),[8],0.126
same,glycan array binding signal (z-score),[9],0.048
same,glycan array binding signal (z-score),[10],-0.005
same,glycan array binding signal (z-score),[11],0.112
same,glycan array binding signal (z-score),[12],0.106
same,glycan array binding signal (z-score),[13],-0.024
same,glycan array binding signal (z-score),[14],0.203
same,glycan array binding signal (z-score),[15],-0.186
same,glycan array binding signal (z-score),[16],-0.203
same,glycan array binding signal (z-score),[17],0.718
same,glycan array binding signal (z-score),[18],-0.327
same,glycan array binding signal (z-score),[19],-0.228
same,glycan array binding signal (z-score),[20],0.015
same,glycan array binding signal (z-score),[21],-0.269
same,glycan array binding signal (z-score),[22],-0.071
same,glycan array binding signal (z-score),[23],-0.305
same,glycan array binding signal (z-score),[24],-0.287
same,glycan array binding signal (z-score),[25],-0.125
same,glycan array binding signal (z-score),[26],0.039
same,glycan array binding signal (z-score),[27],-0.183
same,glycan array binding signal (z-score),[28],-0.022
same,glycan array binding signal (z-score),[29],0.031
same,glycan array binding signal (z-score),[30],-0.164
same,glycan array binding signal (z-score),[31],-0.151
same,glycan array binding signal (z-score),[32],-0.18
same,glycan array binding signal (z-score),[33],0.08
same,glycan array binding signal (z-score),[34],-0.28
same,glycan array binding signal (z-score),[35],-0.096
same,glycan array binding signal (z-score),[36],0.019
same,glycan array binding signal (z-score),[37],-0.149
same,glycan array binding signal (z-score),[38],-0.121
same,glycan array binding signal (z-score),[39],0.103
same,glycan array binding signal (z-score),[40],-0.227
same,glycan array binding signal (z-score),[41],-0.264
same,glycan array binding signal (z-score),[42],-0.129
same,glycan array binding signal (z-score),[43],-0.211
